Laboratory results published in the supplement of paper PMC10126150.
Sequences with one replicate were seen in a single cluster, so their values are uncertain.

System: ATP
Assay: switch fluorescence ratio, 500 uM ATP over buffer (Cy3 cluster intensity, sum of 5 cycles each) (fold (ratio)); higher = stronger signal-on switching upon ATP binding; sequences stand for … in TCGTCGGCAGCGTCAGATGTGTATAAGAGACAGTTTTTTTTTTTTTTTTTTTTTTTTT…TC
Settings: aptamer strand: ATP DNA aptamer (quencher-CACCTGGGGGAGTATTGCGGAGGAAGG + anchor), 100 nM annealed; ATP concentration: 500 uM; one replicate
Procedure, shortened: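 Switching-strand clusters labelled with Cy3 on a modified Illumina MiSeq flow-cell were annealed to 100 nM quencher-labelled ATP aptamer, imaged in selection buffer, and re-imaged after 15 min with 500 uM ATP at 22 °C. This was done over five cycles with NaOH stripping and re-annealing in between. The fluorescence ratio is summed target-cycle over summed buffer-cycle Cy3 intensity per cluster, averaged per switch-domain sequence, excluding clusters outside 100-1000 RFU.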
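Also: ATP exposure 15 min at 22 °C before imaging.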

Sequence	switch fluorescence ratio
CTAGAACGGG	1.01
CTAGAACTGG	1.01
CTAGAAGGA	1.05
CTAGACGCAT	2.01
CTAGATGACC	1.02
CTAGCAGTTT	1.04
CTAGCATCCT	1.04
CTAGCCCTCT	1.01
CTAGCCCTGA	0.96
CTAGCCGGTG	0.987
CTAGCTCCGC	1.17
CTAGGGACAC	1.07
CTAGGGACTG	1.05
CTAGGGAGTT	0.977
CTAGGGATAT	1
CTAGGGCCGC	1
CTAGGGTCT	0.964
CTAGTGACAG	0.986
CTAGTTCCGG	0.971
CTAGTTTAAA	1.02
CTAGTTTAGT	1
CTAGTTTCCT	1.01
CTATACAGAG	1.03
CTATACAGTT	1.03
CTATAGGGGC	1.01
CTATAGTTCC	1.09

Sequence	switch fluorescence ratio
CTATATCGAT	0.967
CTATCATCGT	0.988
CTATCCGAGA	1.08
CTATCGGTAC	1.84
CTATCGTCAT	1.04
CTATGGACGC	1.06
CTATGGCAAA	1.04
CTATGGCGCC	1.01
CTATGGGAC	1.03
CTATGGGAT	1.05
CTATGTCTGT	0.989
CTATTAAACG	1.02
CTATTACACG	1.03
CTATTACTAT	0.967
CTATTCAACC	0.968
CTATTCATGG	0.979
CTATTCCAAA	0.992
CTATTCCTTC	1.05
CTATTGATGC	1.02
CTATTGGGAC	1.02
CTATTGTGTT	0.979
CTATTTCAGT	1.04
CTATTTCATT	1.01
CTATTTTCCG	0.984
CTCAATAGCT	1.06
CTCAATCAG	1.01

Sequence	switch fluorescence ratio
CTCAATTCAC	1.12
CTCAATTGGT	0.994
CTCACCATTT	1
CTCACCTCGA	1.01
CTCACGGA	1.2
CTCACGTGGA	1.01
CTCACGTTGG	1.01
CTCAGAAAGT	0.999
CTCAGAAGTG	1.02
CTCAGAGATC	1.01
CTCAGCCGTC	1.03
CTCAGGCAGC	1.65
CTCAGGCGAG	1.04
CTCAGGCTGG	1.02
CTCAGGGGT	1.22
CTCAGGGTTG	1.01
CTCATAGTCA	0.991
CTCATCGTAT	0.965
CTCATCTTCC	2.17
CTCATGAGAC	1.02
CTCATGATAG	1.07
CTCATGCCGT	1.03
CTCATGTACA	1.04
CTCATTGCTG	0.925
CTCCAATGGA	1.07
CTCCAATTGT	1.1

Sequence	switch fluorescence ratio
CTCCAATTTC	1.9
CTCCAGAACA	0.971
CTCCAGGCAG	2.65
CTCCAGGCTG	1.78
CTCCATCTTC	1.07
CTCCATTTTG	1.04
CTCCGGGGG	1
CTCGAAGGGG	0.991
CTCGAAGTTT	0.996
CTCGAGGTAT	1.01
CTCGATCAGT	1.01
CTCGCATGTA	1.21
CTCGCCTTTC	1.51
CTCGCGGAGT	0.998
CTCGCTTCCG	1.05
CTCGCTTGTT	0.981
CTCGGAGGCT	1.03
CTCGGGTGGC	0.985
CTCGGTACTG	1.06
CTCGGTATCG	0.992
CTCGTACTAG	0.983
CTCGTAGTTA	1.04
CTCGTCGGCG	0.988
CTCGTCTAGG	1.13
CTCGTCTGAC	1.05
CTCGTGGCAG	1

Sequence	switch fluorescence ratio
CTCGTGTCGA	1.03
CTCGTTATTT	1.02
CTCGTTCTAC	1.2
CTCGTTGGAC	1.12
CTCTACCCTT	1.05
CTCTACCTCA	1.04
CTCTAGGCTG	1.06
CTCTAGGTAG	1.13
CTCTATACGC	1.07
CTCTATAGAC	1.82
CTCTCAGACC	1.03
CTCTCCCACG	1.63
CTCTCGAAGG	0.977
CTCTCGGGGA	1.06
CTCTGACGGG	1.02
CTCTGATCAG	0.975
CTCTGGCGTC	1.02
CTCTGTGCCT	1.04
CTCTTAGTAA	1.09
CTCTTATATT	0.961
CTCTTATCTG	0.997
CTCTTATTTC	1.1
CTCTTGGCAC	3.89
CTCTTTAATA	1.01
CTCTTTATAA	1.01
CTGAACCTAT	1.04

Sequence	switch fluorescence ratio
CTGAACGCTG	2.94
CTGAAGCCGA	1.21
CTGAATCTC	1.03
CTGAATGAGC	1.06
CTGACACAGA	1.05
CTGACCGA	1.08
CTGACGAAC	3.1
CTGACGTCGG	1.03
CTGACTCCCT	2.52
CTGACTTGTG	0.961
CTGAGACGCT	1.01
CTGAGATGCC	0.973
CTGAGATTTA	1.03
CTGAGCCG	1.07
CTGAGGCGG	1.11
CTGAGGTTTC	1.03
CTGAGTGTCA	0.969
CTGATCGTA	0.981
CTGATGGA	1.03
CTGATGGCGG	1.04
CTGATGTCCG	1.02
CTGATTAGCT	1.01
CTGATTAGT	1.01
CTGATTCTGA	0.991
CTGATTGCGC	1.07
CTGATTGCTC	1.07

Sequence	switch fluorescence ratio
CTGATTGGGT	1.16
CTGATTTCTA	1.02
CTGCAAGCTT	1.35
CTGCAAGTTG	1.1
CTGCACATCA	1.1
CTGCAGCTG	1.18
CTGCAGGGCC	1.09
CTGCCAAAAG	1.07
CTGCCAGCGT	1.04
CTGCCCGGGT	0.964
CTGCCGCAGA	2.82
CTGCCTGTGT	1.06
CTGCGAATAT	1.3
CTGCGCCACG	1.13
CTGCGCCGGG	1.04
CTGCGCGAAT	1.07
CTGCGCGAGA	1.12
CTGCGGCTAC	3.98
CTGCGGGGAA	1.03
CTGCGTAAAC	3.2
CTGCTCAATC	2.18
CTGCTCACCG	1.05
CTGCTCCCTA	1.02
CTGCTCTCGG	1.04
CTGCTTTTGC	0.984
CTGGAACGG	1.02

Sequence	switch fluorescence ratio
CTGGAAGACG	1.01
CTGGAAGAG	1.06
CTGGAATCGA	1.06
CTGGACCGCG	0.962
CTGGAGCCTG	1.02
CTGGAGCTGG	1.59
CTGGATTAGT	1.02
CTGGCAGGAT	0.968
CTGGCAGTCA	1.05
CTGGCCGAA	1.01
CTGGCGTCGG	1.01
CTGGCTTATA	0.996
CTGGGAACAT	1.01
CTGGGAATA	1.02
CTGGGCAAGG	1.18
CTGGGCGCGA	1.05
CTGGGTCTCC	1.01
CTGGGTGAAT	0.98
CTGGGTTAAA	1.02
